# In PubChem BioAssay AID504845 (National Center for Advancing Translational Sciences (NCATS), 2011):
# Where “and” joins values, the source holds several entries; their conditions need not be identical. Equal entries are not always repeated. Out of some 390,000 compounds screened, about 150 (0.038%) were called active. This list was built around the results that the source calls inconclusive (neither active nor inactive); the mix of calls is not that of the screen. Calls follow the shape of the dose curve; as a rule, active = well fitted inhibition curve with a large enough effect; inconclusive = small, poorly fitted or top-dose-only effect; inactive = no such curve, though single readings can be large or run the other way. Where the call is inconclusive, the potency comes from a doubtful curve fit.
# Biological target: Regulator of G-protein signaling 4 (Homo sapiens) (UniProt P49798)
# Sequence of UniProt P49798 (P49798 whole entry, looked up): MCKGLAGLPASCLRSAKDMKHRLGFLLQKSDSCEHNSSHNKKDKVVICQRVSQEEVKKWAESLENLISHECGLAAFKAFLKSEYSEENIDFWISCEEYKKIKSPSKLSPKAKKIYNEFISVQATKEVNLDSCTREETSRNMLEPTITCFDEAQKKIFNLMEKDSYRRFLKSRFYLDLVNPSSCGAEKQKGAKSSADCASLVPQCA
# Experiment: Inhibitors of Regulator of G Protein Signaling (RGS) 4: qHTS; also: nearly all actives have a fitted effect of over 75% in size
# Settings: Transcreener GDP fluorescence polarization, RGS4-accelerated GTP hydrolysis; series mostly up to 114 µM; activity change, negative = inhibition: at the top concentration
# Procedure, shortened: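 MLSMR compounds (23 nl, pin-transferred) preincubated 10 min at room temperature with a 500nM (2x) first reagent, then RGS4 at 900nM (2x) plus Transcreener GDP mix added; fluorescence polarization (620/688 nm) read before and after 90 min at 30 °C.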
# % is scaled to controls: 0 for no effect and ±100 for the full control effect; potency is read from the fitted curve at half-maximal effect; tags tell the direction and shape of the fitted curve.
Structure (SMILES),"activity change, negative = inhibition",Potency
Cn1cnc([N+](=O)[O-])c1Sc1nnc(-c2cccnc2)n1C,inactive: 4.03%,–
Cn1nnc2c(NCCc3ccccc3)ncnc21,inactive: -1.58%,–
O=C1CSC(=S)N1N=Cc1cccc2ccccc12,–,"inconclusive: 89.1 µM [inhibitor, partial curve, poor fit]"
Cc1ccc2nc(N3C(=O)C(O)=C(C(=O)c4ccco4)C3c3cccc(O)c3)sc2c1 (stereo not given),–,"inconclusive: 50.1 µM [inhibitor, partial curve, poor fit]"
CC1CCCC(NC(=O)c2ccc3c(c2)OCO3)C1C (stereo not given),inactive: -21.9%,–
Cc1cc(C(=O)NC2CCCc3c2cnn3-c2cccc(C)c2C)c(C)o1 (stereo not given),–,"inconclusive: 50.1 µM [inhibitor, partial curve, poor fit]"
Cc1ccc(N/N=C(\C#N)C(N)=S)cc1C,–,"inconclusive: 50.1 µM [inhibitor, partial curve, poor fit]"
CCOc1ccc(NC(=O)CCC(=O)NNC(=O)Nc2ccc(Cl)cc2)cc1,–,"inconclusive: 39.8 µM [inhibitor, partial curve, poor fit]"
COCCSc1ccccc1C(=O)N1CCOCC1,inactive: -8.69%,–
O=C(/C=C/c1cn(-c2ccccc2)nc1-c1ccc2c(c1)OCCO2)NCCO,–,"inconclusive: 79.4 µM [inhibitor, partial curve, poor fit]"
CCCN(CCC)C(=O)c1ccc2c(c1)OCO2,inactive: -13.4%,–
CCC1=Nc2cc(C(=O)NCCN3CCCC3)ccc2Sc2ccccc21,inactive: -13.3%,–
CS(=O)(=O)c1ncc(Cl)c(C(=O)Nc2ccc(N3CCOCC3)cc2)n1,–,"inconclusive: 28.2 µM [inhibitor, full curve, poor fit]"
COc1ccc(OC)c(NC(=O)CN2C(=O)COc3ccc(S(=O)(=O)NC4CCCC4)cc32)c1,inactive: -6.76%,–
Cc1cccn2cc(CSc3nnc(Nc4ccc(C(C)C)cc4)s3)nc12,inactive: -7.19%,–
CCc1nnc(NC(=O)CSc2nnc(-c3ccoc3C)n2-c2ccc(C)cc2)s1,–,"inconclusive: 89.1 µM [inhibitor, single point]"
Brc1ccc(-c2cn3nc4c(nc3n2)CCCC4)cc1,inactive: 9.03% [at 11.4 µM],–
Cc1c(C(=O)NCc2c(F)cc(F)cc2F)oc2ccc(S(=O)(=O)N3CCOCC3)cc12,–,"inconclusive: 79.4 µM [inhibitor, partial curve, poor fit]"
O=C(NCc1ccc(F)cc1)c1ccccc1OCc1ccccc1,inactive: -13.3%,–
N[C@H](C(=O)O)c1ccc(O)c(C(=O)O)c1,–,"inconclusive: 8.44 µM [inhibitor, partial curve, poor fit] and inconclusive: 37.7 µM [inhibitor, partial curve, poor fit]"
O=C(O)c1ccc(N=Cc2c(O)ccc3ccccc23)cc1,–,"inconclusive: 39.8 µM [inhibitor, partial curve, poor fit]"
N#C/C(=C\c1coc2ccc(O)cc2c1=O)C(=O)Nc1nc2ccccc2s1,–,"inconclusive: 89.1 µM [inhibitor, partial curve, poor fit]"
CCOc1cc2c(cc1O)C(=NOC)CC1C2CCC2(C)C(O)CCC12 (stereo not given),inactive: -23%,–

Structure (SMILES),"activity change, negative = inhibition",Potency
CCc1ccc(NC(=O)CCS(=O)(=O)c2ccc3c(c2)n(C)c(=O)c(=O)n3C)cc1,inactive: 14.1%,–
CCOC(=O)c1cc(-c2ccccc2)n(-c2cccc(C(=O)Nc3ccc(OCC)cc3)c2)c1C,inactive: 14.8%,–
COc1ccc(Cl)cc1NC(=O)CN1C(=O)COc2ccc(S(=O)(=O)NC3CCCC3)cc21,inactive: -6.18%,–
COc1ccc(-c2cc(C(=O)Nc3c(C)nn(Cc4ccc(C)cc4)c3C)no2)cc1OC,inactive: 16.7%,–
CSc1ccc(C(=S)N2CCN(C(c3ccccc3)c3ccccc3)CC2)cc1,–,"inconclusive: 100 µM [inhibitor, partial curve, poor fit]"
Cc1ccc(C(=O)OCC(=O)c2ccc(CC(=O)N3CCOCC3)s2)c(C)c1,inactive: -53.5%,–
CCOc1cc(NC(=S)NCCc2ccccc2)c(OCC)cc1NC(C)=O,–,"inconclusive: 89.1 µM [inhibitor, single point]"
CCOc1cc(/C=C(\C#N)C(=O)Nc2cccc(C(=O)O)c2)ccc1OCc1ccccc1Cl,–,"inconclusive: 79.4 µM [inhibitor, single point]"
CCOC(=O)C1=C(C)NC(=NC)SC1c1ccccc1 (stereo not given),–,"inconclusive: 25.1 µM [inhibitor, full curve, poor fit]"
O=C1C2C(C(=O)N1/N=C/c1cc([N+](=O)[O-])c(O)cc1O)C1C=CC2C12CC2 (stereo not given),inactive: -17.4%,–
Cc1cc(Br)ccc1NC(=S)Nc1cccc([N+](=O)[O-])c1,–,"inconclusive: 28.2 µM [inhibitor, full curve, poor fit]"
O=c1[nH]c2cc3c(cc2cc1CN(Cc1cccs1)Cc1nnnn1Cc1ccco1)OCCO3,–,"inconclusive: 31.6 µM [inhibitor, full curve, poor fit]"
COc1cccc(Cn2c(=O)n(Cc3ccco3)c(=O)c3oc4ccccc4c32)c1,inactive: 11.9%,–
O=C(O)c1ccc(NNC(=S)Nc2cc(C(F)(F)F)ccc2Cl)cc1,–,"inconclusive: 70.8 µM [inhibitor, partial curve, poor fit]"
O=C(CSc1nnc2n1CCCN2C(=S)Nc1ccc(Cl)cc1)c1ccccc1,–,"inconclusive: 10 µM [inhibitor, full curve, poor fit]"
OCCOCCNc1ncnc2c1cnn2-c1ccccc1,inactive: -10.9%,–
CC(C)(C)C(=O)NCCc1nc2ccccc2n1CCCCOc1ccc(Cl)cc1,inactive: -6.68%,–
CCOC(=O)c1ccc(/[N+]([O-])=C/c2ccccc2)cc1,–,"inconclusive: 50.1 µM [inhibitor, partial curve, poor fit]"
Cc1cc(C)nc(SCc2cn3c(C)cccc3n2)n1,–,"inconclusive: 79.4 µM [inhibitor, partial curve, poor fit]"
Oc1ccc(N=Cc2ccc(O)c(O)c2)cc1,inactive: -24.1%,–
COc1cccc(CNC(=O)c2cc3c(s2)-c2c(C)cccc2OC3)c1,–,"inconclusive: 44.7 µM [inhibitor, partial curve, poor fit]"
COC(=O)CS(=O)(=O)c1nnc([C@H](Cc2ccccc2)NC(=O)OC(C)(C)C)o1,–,"inconclusive: 44.7 µM [inhibitor, partial curve, poor fit]"
